Laboratory results: PubChem BioAssay AID588855 (National Center for Advancing Translational Sciences (NCATS), 2011)
Where “and” joins values, the source holds several entries; their conditions need not be identical. Identical values can stand only once. Among all 410,000 compounds or so, about 5,000 (1.2%) were called active. The inconclusive results got no clear call from the source; some entries with a clear call stand among them for comparison. Calls follow the shape of the dose curve; as a rule, active = well fitted inhibition curve with a large enough effect; inconclusive = small, poorly fitted or top-dose-only effect; inactive = no such curve, though single readings can be large or run the other way. Potencies of inconclusive entries are doubtful fits and often do not repeat.

Assay: qHTS for Inhibitors of TGF-b; also: nearly all actives have a fitted effect of over 65% in size
Settings: HepG2 CAGA-GFP TGF-b/SMAD3 reporter, GFP fluorescence, 18 h, TGF-beta stimulated, 500 pg/mL final; series mostly up to 46.1 µM; activity, negative = inhibition: at the top concentration
Method in brief: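 Inhibition of TGF-beta-driven CAGA-GFP reporter expression in HEPG2 cells is measured by cellular GFP fluorescence after 18 h stimulation with 500 pg/mL recombinant TGF-beta in 1% FBS medium at 37 degrees C.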
% is scaled to controls: 0 for no effect and ±100 for the full control effect; potency is read from the fitted curve at half-maximal effect; tags tell the direction and shape of the fitted curve.

Row | SMILES | Potency | activity, negative = inhibition
1 | CCN(CC)CCNC(=O)c1cc(-c2ccc(Br)s2)nc2ccccc12 | inconclusive: 20 µM [inhibitor, partial curve, poor fit] and inconclusive: 35.5 µM [inhibitor, single point] | –
2 | S=C(NN=Cc1ccccn1)Nc1ccccn1 | inconclusive: 2 µM [inhibitor, full curve, poor fit] | –
3 | COc1ccccc1N1CCN(C(=O)c2ccc(Cl)c(S(=O)(=O)N3CCCC3)c2)CC1 | inconclusive: 11.2 µM [inhibitor, single point] | –
4 | N#C/C(=C\c1cccc(Br)c1)C(=O)N1CCCCC1 | inconclusive: 25.1 µM [inhibitor, partial curve, poor fit] | –
5 | O=C(CSc1nnc(Cc2ccccc2)o1)N1CCCc2ccccc21 | – | inactive: 5.57%
6 | COc1ccc(-c2ccc(=O)n(Cc3ccccc3)n2)cc1 | inconclusive: 20 µM [inhibitor, single point] | –
7 | Cc1ccccc1S(=O)(=O)Cc1ccc(C(=O)N2CCN(c3ccc(F)cc3)CC2)o1 | inconclusive: 35.5 µM [inhibitor, single point] | –
8 | Cc1ccccc1-c1ncc(CN2CCC(CO)(CCCc3ccccc3)CC2)cn1 | inconclusive: 2.24 µM [inhibitor, full curve] | –
9 | O=C(OCc1cn([C@@H]2C[C@H](c3ccc(Cl)cc3)N(C(=O)C3CCCCC3)C[C@H]2O)nn1)c1ccccc1 | inconclusive: 35.5 µM [inhibitor, single point] | –
10 | O=C(Nc1ccc2c(c1)OCCO2)C1CCN(C(=O)c2ccc(F)cc2)CC1 | inconclusive: 15.8 µM [inhibitor, single point] | –
11 | Cc1cccc(C)c1NC(=O)CN(C)C(=O)CN1C(=O)NC2(CCCC2)C1=O | – | inactive: 0%
12 | O=Cc1ccc(OCc2cccc(C(F)(F)F)c2)cc1O | inconclusive: 35.5 µM [inhibitor, single point] | –
13 | O=c1[nH]c(=O)n(Cc2ccco2)c2c1C(C(F)(F)F)(C(F)(F)F)N=C(CCc1ccccc1)N2 | – | inactive: -25.6%
14 | COc1ccc(NC(=O)c2ccccn2)cc1 | – | inactive: 7.35%
15 | O=C(CSc1nc2ccccc2c(=O)n1NC(=O)Cc1ccccc1)NCc1ccco1 | – | inactive: 0.955%
16 | Cc1cccc(C)c1NC(=S)NC(=O)c1ccccc1F | inconclusive: 35.5 µM [inhibitor, single point] | –
17 | COc1ccc(-c2csc(NC(=O)CSc3ccc(Br)cc3)n2)c(OC)c1 | – | inactive: 0%
18 | CC(Oc1ccc(F)cc1)C(=O)Nc1nc(-c2ccc(F)cc2)ns1 (stereo not given) | inconclusive: 22.4 µM [inhibitor, partial curve, poor fit] | –
19 | Cc1ccc(-n2nnnc2Sc2nc([N+](=O)[O-])nn2C)cc1 | inconclusive: 35.5 µM [inhibitor, single point] | –
20 | COc1ccc(-c2noc(-c3ccc(N4CCCC4)c([N+](=O)[O-])c3)n2)cc1 | – | inactive: -1.18%

Row | SMILES | Potency | activity, negative = inhibition
21 | Cc1ccc(NC(=O)C(C)OC(=O)c2ccc(Cl)nc2)cc1S(=O)(=O)N1CCOCC1 (stereo not given) | inconclusive: 0.891 µM [inhibitor, full curve] | –
22 | c1ccc(CCNc2ccc3ncc(-c4cccc5ccccc45)n3n2)nc1 | inconclusive: 22.4 µM [inhibitor, single point] | –
23 | Cc1cc(C)c(C(CC(=O)c2cccs2)C(C#N)C#N)c(C)c1 (stereo not given) | active: 17.8 µM | –
24 | CC1Cn2c(nc3c2c(=O)[nH]c(=O)n3C)O1 (stereo not given) | inconclusive: 0.631 µM [inhibitor, full curve] | –
25 | O=C(CC1SC(=Nc2ccccc2)N(CCCO)C1=O)Nc1ccc(Cl)cc1 (stereo not given) | inconclusive: 35.5 µM [inhibitor, single point] | –
26 | CC1CN(S(=O)(=O)c2cccc(C(=O)N(CCc3ccccc3)Cc3ccccc3)c2)CC(C)O1 (stereo not given) | inconclusive: 35.5 µM [inhibitor, single point] | –
27 | COc1ccc(Cn2c(CNS(=O)(=O)c3ccc(C)c(C)c3)nc3cccnc32)cc1 | inconclusive: 35.5 µM [inhibitor, single point] | –
28 | CCOC(=O)Cn1c(=O)n(CC2CCCO2)c2nc(-c3ccccc3F)nc(C(N)=O)c21 (stereo not given) | – | inactive: 1.07%
29 | COc1cccc(CSc2nnc(-c3ccc(F)cc3)o2)c1 | inconclusive: 35.5 µM [inhibitor, single point] | –
30 | COC(=O)c1ccc(NC(=O)CCc2c(C)nc3c(-c4ccccc4)c(C)nn3c2C)cc1 | inconclusive: 11.2 µM [inhibitor, partial curve, poor fit] | –
31 | CCN(CC(=O)N1CCOCC1)S(=O)(=O)c1ccc(C)cc1 | inconclusive: 6.31 µM [inhibitor, single point] | –
32 | CCn1c(CNC(=O)c2ccc(OC)cc2)nnc1SCC(=O)Nc1ccccc1 | inconclusive: 0.562 µM [inhibitor, full curve, poor fit] | –
33 | Cc1nn(C)c(Cl)c1CN1CCC(Oc2ccc(C(=O)N3CCCC3)cc2)CC1 | inconclusive: 20 µM [inhibitor, single point] | –
34 | Cc1cc2[nH]c3c(c[n+](C)c4ccccc34)c2cc1C | inconclusive: 12.6 µM [inhibitor, partial curve, poor fit] | –
35 | COc1ccc(-n2c(C)c(C(C)=O)c3cc(OC(=O)c4ccc(C)cc4)ccc32)cc1 | inconclusive: 20 µM [inhibitor, single point] | –
36 | CCN(CC)S(=O)(=O)c1cc(NC(=O)C2CC(=O)N(Cc3ccccc3)C2)ccc1Cl (stereo not given) | inconclusive: 22.4 µM [inhibitor, partial curve, poor fit] | –
37 | CN1CCN(CCOC2Cc3ccccc3Sc3ccc(Cl)cc32)CC1 (stereo not given) | inconclusive: 35.5 µM [inhibitor, single point] | –
38 | Cc1cccc(C(=O)O/N=C(\N)c2ccccn2)c1 | inconclusive: 0.112 µM [inhibitor, full curve, poor fit] | –
39 | COC(=O)c1cc2c(ccn2-c2ccc(F)cc2)n1Cc1ccc(OC(C)=O)cc1 | inconclusive: 35.5 µM [inhibitor, single point] | –
40 | COc1ccc(F)cc1C(=O)C1CCCN(C(=O)c2ccccc2N(C)C)C1 (stereo not given) | inconclusive: 35.5 µM [inhibitor, single point] | –
